The supplement of paper PMC10338343
± gives the standard deviation. The list shows a part of the results, in another mix than the full data.

These sequences were tested on MIWI (PIWIL1) piRISC loaded with piRNA #1 (30 nt) (assay: pre-steady-state target cleavage rate (min^-1); MIWI and MILI are mouse PIWI proteins and EfPiwi is from a freshwater sponge; tags in brackets are library labels; higher = faster piRNA-guided slicing of the target). Details: guide: piRNA #1 5'p-UGAGGUAGUAGGUUGUAUAGUAUCCAGAGG; auxiliary factor: 500 nM mouse GTSF1.
How it was run: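 The pre-steady-state cleavage rate was derived from a burst-and-steady-state fit of Cleave-'n-Seq data. For these assays, 1 nM active affinity-purified piRISC loaded with a single synthetic guide was mixed with […] a transcribed, DNA-blocked target RNA library in HEPES–potassium acetate buffer at 33 °C, with or without 500 nM GTSF1 partner protein, for 0–8 or 0–960 min. Sequencing counts of uncleaved targets were normalised to depth and to weakly complementary targets, and k3 was capped at 0.0001 min^-1 after three trials were pooled.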
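Note: 1 nM active piRISC with 0.1 nM target library at 33 °C single turnover.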

Row | Sequence | pre-steady-state target cleavage rate
1 | GGAGACCAUACUAUACAACGUUCUACCUCA | 0.0192 ± 0.0032
2 | GGAGACCUAUGUAUACAACCUACUACCUUA | 0.227 ± 0.032
3 | GGAGACCUAUGAUAUGUUCCUACUACUCA | < 0.0001
4 | GGAGACCUAACUAUUCAACCUACUAGCUCA | 0.152 ± 0.027
5 | GCUCUGGAUACUAUACUACCUACUUCCUCA | 0.576 ± 0.063
6 | GCUCUGGAUUCUAUACAACCUACUAGCUCA | 0.665 ± 0.068
7 | GCUCUGGAUACUAUACAACCUACUAGCUGA | 0.187 ± 0.03
8 | CCUCUGGAUACUAUACAACAUACUACCUCA | 1.47 ± 0.073
9 | GGAGACCUUACUAUACAACCUACUAGGACA | 0.0569 ± 0.018
10 | GGAGACCUAUGUAUACAACCUACUACCUUCA | 0.0147 ± 0.0029
11 | GGAGUGGAUACAAUACUACCUACUACCUCA | 0.86 ± 0.066
12 | GGAGUGGAUACUAUACAACCUACCACCUCA | 0.434 ± 0.044
13 | GGUGUGGAUACUAUACAACCUUCUACCUCA | 0.734 ± 0.033
14 | GGUCGUGGAUACUAUACAACCUACUACCUCA | 1.72 ± 0.093
15 | GGACUGGAUACUAUACAAGCUACUACCUGA | 0.683 ± 0.058
16 | GCACUGGAUACUAUACAACCUACAACCUCA | 0.591 ± 0.049
17 | GGAGACCUAACUAUAAAACCUACUACCUCA | 0.344 ± 0.045
18 | GGAGAGGAUACAAUACAAGCUACUACCUCA | 0.505 ± 0.037
19 | GGAGACCUAACUAUACAAGCUACUACCUGA | 0.434 ± 0.036
20 | GCUCUGCAUACUAAACAACCUACUACCUCA | 1.75 ± 0.12

Row | Sequence | pre-steady-state target cleavage rate
21 | CCUCUGGAUCUAUACAACCUACUACCUCA | 1.19 ± 0.086
22 | GGAGACCUUACUAUUCAACGUACUACCUCA | 0.204 ± 0.021
23 | GGAGACCUAACUAUCCAACCUACUACCUCA | 0.993 ± 0.086
24 | GGAGACGAUACUAUUCAACCUACUACCACA | 0.827 ± 0.057
25 | GGUCUGGAUACUAAACAACGUACUACCUCA | 0.851 ± 0.062
26 | GGAGUGGAUACUAAACAACCUACUACCUCA | 1.51 ± 0.092
27 | GGAGACCAUACUUAUCAACCUACUACCUCA | 0.134 ± 0.034
28 | GGAGACCUUAGUAUACAACCUACUACCACA | 0.257 ± 0.037
29 | GGACUGAUACUAUACAACCUACUACCUCA | 1.72 ± 0.11
30 | GGAGACCUAACUAUACAACCUACUACGUCA | 0.655 ± 0.062
31 | GGAGACCUUUCUAUAGAACCUACUACCUCA | 0.751 ± 0.074
32 | GGAGAGGAGACUAUACAACCUACUACCUCA | 1.32 ± 0.11
33 | GGUCUGGAUACUAUUCAAGCUACUACCUCA | 1.14 ± 0.059
34 | GGUCUGGAUACUAUACAACCUACUACCUUA | 1.01 ± 0.075
35 | GGAGACCUAACUAUACAACCUACUACACUCA | 0.539 ± 0.059
36 | GGAGACGAUACUAUACAUCCUACUUCCUCA | 0.364 ± 0.035
37 | GGAGACCUAUGUAUACAACCUACAUACCUCA | 0.0147 ± 0.0034
38 | GGAGACCUAACUAUACAACCUACAUGGAGA [g8:g21:cont:t1A] | 0.00535 ± 0.0032
39 | GCACUGGAUACUAUACAACCUACUACCACA | 0.895 ± 0.061
40 | GGAGACCAUACUAUACAAGCUAGUACCUCA | 0.379 ± 0.025
